Common to all, as to assay: protein-binding microarray (PBM)
Common to all, as to details: PBM: ~300 nM protein, 6 mM HEPES pH 7.8, 80 mM KCl, 0.5 mM EDTA, 0.5 mM EGTA, 6% glycerol, 35 ng/ul poly-dIdC, 1% milk, 1 h, room temperature; Ap Aiptasia and Nv Nematostella (sea anemones) / Co Capsaspora / Aq Amphimedon (sponge) / Dm Drosophila / Hu human; RHD is the Rel homology domain; high values mean tight binding; most listed sequences are background and not binding sites; double strand, one strand shown

One test deals with T1, GST-Ap-NF-kB RHD (UniProt A0A913YAJ5).
T1 sequence: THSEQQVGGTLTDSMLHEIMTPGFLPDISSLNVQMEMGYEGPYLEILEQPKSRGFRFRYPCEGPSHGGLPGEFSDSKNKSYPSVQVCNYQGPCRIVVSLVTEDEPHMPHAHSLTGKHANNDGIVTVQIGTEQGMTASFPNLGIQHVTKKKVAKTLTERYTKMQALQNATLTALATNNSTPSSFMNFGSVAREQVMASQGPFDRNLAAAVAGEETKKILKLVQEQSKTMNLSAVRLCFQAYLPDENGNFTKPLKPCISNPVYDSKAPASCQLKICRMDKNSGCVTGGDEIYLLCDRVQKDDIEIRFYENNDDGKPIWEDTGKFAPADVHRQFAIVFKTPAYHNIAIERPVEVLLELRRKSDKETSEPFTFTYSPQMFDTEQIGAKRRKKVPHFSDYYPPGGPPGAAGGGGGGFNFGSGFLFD

The target of test [1] is T2, GST-Nv-NF-kB (Cys allele) (UniProt E5G601).
T2 sequence: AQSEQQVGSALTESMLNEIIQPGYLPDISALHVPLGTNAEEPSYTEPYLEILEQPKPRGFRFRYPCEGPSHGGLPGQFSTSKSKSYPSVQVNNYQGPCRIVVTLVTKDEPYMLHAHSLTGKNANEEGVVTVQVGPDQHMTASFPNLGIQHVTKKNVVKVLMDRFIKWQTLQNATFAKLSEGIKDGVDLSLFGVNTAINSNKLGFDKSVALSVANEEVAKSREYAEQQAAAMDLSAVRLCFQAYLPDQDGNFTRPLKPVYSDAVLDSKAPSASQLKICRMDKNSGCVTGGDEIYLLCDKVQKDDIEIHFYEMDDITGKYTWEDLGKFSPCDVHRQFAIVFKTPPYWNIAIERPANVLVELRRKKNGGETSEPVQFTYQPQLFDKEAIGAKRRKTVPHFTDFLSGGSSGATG

The target in another test is T3, GST-Co-NF-kB (UniProt F1ARL5).
T3 sequence: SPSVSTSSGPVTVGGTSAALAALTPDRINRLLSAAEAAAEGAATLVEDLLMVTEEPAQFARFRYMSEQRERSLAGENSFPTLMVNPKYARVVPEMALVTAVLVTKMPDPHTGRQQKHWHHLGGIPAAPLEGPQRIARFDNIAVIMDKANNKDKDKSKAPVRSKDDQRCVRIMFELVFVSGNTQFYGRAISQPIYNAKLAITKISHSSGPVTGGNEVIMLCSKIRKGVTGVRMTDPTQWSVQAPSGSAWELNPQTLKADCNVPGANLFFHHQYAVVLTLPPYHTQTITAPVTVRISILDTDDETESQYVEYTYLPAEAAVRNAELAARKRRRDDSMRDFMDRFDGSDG

Another test addresses T4, GST-Dm-Relish (UniProt Q94527).
T4 sequence: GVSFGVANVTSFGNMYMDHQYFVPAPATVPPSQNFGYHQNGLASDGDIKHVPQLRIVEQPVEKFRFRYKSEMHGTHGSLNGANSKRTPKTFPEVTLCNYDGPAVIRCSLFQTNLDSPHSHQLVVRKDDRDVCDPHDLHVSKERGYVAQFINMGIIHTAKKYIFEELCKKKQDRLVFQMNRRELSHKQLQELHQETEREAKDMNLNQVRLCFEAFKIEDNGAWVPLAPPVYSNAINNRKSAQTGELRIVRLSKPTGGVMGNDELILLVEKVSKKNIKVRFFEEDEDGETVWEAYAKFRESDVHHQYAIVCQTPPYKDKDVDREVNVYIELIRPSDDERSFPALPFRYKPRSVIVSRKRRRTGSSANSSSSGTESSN

In another test the target is T5, GST-Aq-NF-kB (UniProt A9Y5G7).
T5 sequence: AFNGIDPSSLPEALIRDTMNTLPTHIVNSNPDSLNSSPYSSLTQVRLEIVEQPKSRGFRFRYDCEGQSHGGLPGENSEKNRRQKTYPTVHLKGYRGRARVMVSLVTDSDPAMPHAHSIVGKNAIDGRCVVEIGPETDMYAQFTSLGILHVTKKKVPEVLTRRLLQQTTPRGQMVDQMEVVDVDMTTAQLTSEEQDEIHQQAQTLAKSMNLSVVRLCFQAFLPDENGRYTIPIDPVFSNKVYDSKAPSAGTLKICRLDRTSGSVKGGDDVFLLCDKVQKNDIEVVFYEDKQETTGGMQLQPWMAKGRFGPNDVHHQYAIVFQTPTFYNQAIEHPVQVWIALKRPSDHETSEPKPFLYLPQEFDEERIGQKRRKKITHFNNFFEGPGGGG

Only a part is listed here, and it is no random draw. The list includes weakly bound sequences.

On to “CCGATTAACATCATCGAGACAAATGATGTTAATCGGGTCTTGATTCGCTTGACGCTGCTG”, for which the binding signal was -0.263 z-score with GST-Ap-NF-kB RHD; -0.177 z-score in test [1]; -0.666 z-score with GST-Co-NF-kB; -0.619 z-score with GST-Dm-Relish; -0.59 z-score in the test with GST-Aq-NF-kB.

Take “CCGATTAACATCAGATTTGTCGTTGATGTTAATCGGGTCTTGATTCGCTTGACGCTGCTG”: the binding signal is -0.528 z-score in the test with GST-Ap-NF-kB RHD; -0.591 z-score in test [1]; -0.192 z-score in the test with GST-Co-NF-kB; -0.999 z-score in the test with GST-Dm-Relish; -0.365 z-score with GST-Aq-NF-kB.

Take “CCGATTAACATCAGGTTCATACCTGATGTTAATCGGGTCTTGATTCGCTTGACGCTGCTG”: the binding signal in the test with GST-Ap-NF-kB RHD was -0.998 z-score; in test [1], 0.458 z-score; with GST-Co-NF-kB, -1.17 z-score; in the test with GST-Dm-Relish, -0.197 z-score; in the test with GST-Aq-NF-kB, 0.259 z-score.

For the sequence “CCGATTAACATCACATTTAGGACTGATGTTAATCGGGTCTTGATTCGCTTGACGCTGCTG”, the binding signal is -0.583 z-score with GST-Ap-NF-kB RHD; 0.246 z-score in test [1]; -0.33 z-score in the test with GST-Co-NF-kB; 0.456 z-score with GST-Dm-Relish; -0.0522 z-score in the test with GST-Aq-NF-kB.

As for “CCGATTAACATCAAGCGATCTCCTGATGTTAATCGGGTCTTGATTCGCTTGACGCTGCTG”, the binding signal in the test with GST-Ap-NF-kB RHD was -0.154 z-score; in test [1] it was -0.713 z-score; in the test with GST-Co-NF-kB it was -0.664 z-score; in the test with GST-Dm-Relish, -1.25 z-score; in the test with GST-Aq-NF-kB it was -0.547 z-score.

Turning to “CCGATTAACATCAAGTATGTGAATGATGTTAATCGGGTCTTGATTCGCTTGACGCTGCTG”, the binding signal is -0.387 z-score in the test with GST-Ap-NF-kB RHD; 0.137 z-score in test [1]; 0.0751 z-score with GST-Co-NF-kB; 0.594 z-score with GST-Dm-Relish; -0.247 z-score with GST-Aq-NF-kB.

Turning to “CCGATTAACATCAGGTACTTCCATGATGTTAATCGGGTCTTGATTCGCTTGACGCTGCTG”, the binding signal with GST-Ap-NF-kB RHD was 2.51 z-score; in test [1], 2.6 z-score; in the test with GST-Co-NF-kB it was 0.0969 z-score; with GST-Dm-Relish, 5.93 z-score; with GST-Aq-NF-kB, 2.23 z-score.

As for “CCGATTAACATCATCCGCCCTCCTGATGTTAATCGGGTCTTGATTCGCTTGACGCTGCTG”, the binding signal in the test with GST-Ap-NF-kB RHD is 0.52 z-score; in test [1], -0.135 z-score; with GST-Co-NF-kB it was 0.873 z-score; with GST-Dm-Relish, -0.612 z-score; with GST-Aq-NF-kB, -0.144 z-score.

As for “CCGATTAACATCACGGAATGTACTGATGTTAATCGGGTCTTGATTCGCTTGACGCTGCTG”, the binding signal in the test with GST-Ap-NF-kB RHD is -0.0219 z-score; in test [1], -0.525 z-score; with GST-Co-NF-kB it was 0.104 z-score; in the test with GST-Dm-Relish, 1.8 z-score; with GST-Aq-NF-kB, 0.462 z-score.

“CCGATTAACATCAAAGATTCAGCTGATGTTAATCGGGTCTTGATTCGCTTGACGCTGCTG”: the binding signal with GST-Ap-NF-kB RHD is -0.649 z-score; in test [1], -0.313 z-score; with GST-Co-NF-kB, -0.873 z-score; with GST-Dm-Relish, -0.655 z-score; with GST-Aq-NF-kB, -0.776 z-score.
